This is one part of the list.
B1: 108206848_108207304_4261_CDS_ENSMUSG00000068740_ENSMUST00000090558|mouse|control|control (ssRNA)
RNA: GGGAGUUCUACAGUCCGACGAUCCACCUCGAGAGCCACAAAGUCGUGCUUCUCAUUGAAGCGCCCAUUGUACAGCAGUAGCCCGUUACGCUCCUUGGUAGCAAACGAGAGGGCCAGGGUGAAGUGGAAGCGCUGGCGCAGGCCCAACAGAGGAUUGAGCAUCA
B2: 134337774_134337894_788_CDS_ENSMUSG00000042502_ENSMUST00000166791|mouse|control|control (ssRNA)
RNA: GGGAGUUCUACAGUCCGACGAUCCAUGUCCAGGGAGGGUGGAGGUGUGGGGUCAUGGGAUCCCUGGGCCCGACACCCCAAACCCUUCAGUCGCAUAGCCAACCGUUCCCUUGUUUCCUGGUACACACCAAGGUUGCCUCGUGCCAACAGAGGAUUGAGCAUCA
B3: chr1:220276048:220276049:+_ENSG00000067704_ENST00000302637|hu_hu|hu_hu_hu_mus_True|28_68 (ssRNA)
RNA: GGGAGUUCUACAGUCCGACGAUCGCAAAUUGCCUGGUUGGCGGGAAUUGUCCAAGGCUGGGUGGUCCAGACCAAAACGCUAACAGGGGAUGAGGCAUCUGUAAGAGAUGCCAAUUUCGGAGGAGGUCUCAGGAGGGGGAAUCUCAACAGAGGAUUGAGCAUCA
B4: chr1:244855233:244855234:+_ENSG00000121644_ENST00000302550|hu_mus|hu_hu_hu_mus_True|48_88 (ssRNA)
RNA: GGGAGUUCUACAGUCCGACGAUCCAUCAGAUGGUAGGCGUUGCCCUUGUAUUCUUUCCCCAGUUCUUCUACAAUUUUCUCUAUAUCAUCUUCUAGGAAGUCCGUACUUCCUAGAACAACAGCUUCUUUAAAUUUAAAUGUUUCCAACAGAGGAUUGAGCAUCA
B5: chrX:12193597:12193598:+_ENSMUSG00000031007_ENSMUST00000033313|mus_mus|FALSE|FALSE (ssRNA)
RNA: GGGAGUUCUACAGUCCGACGAUCACAAAGCUAGUCUCUUCUGAAAUCAACAUAGUAUUUUUAAUAAUUUUAAUAUCUCUACUAAACCACACGGAUCACCAAACUUGCAGAAGAGAUUAAAAACAGCUAGCUUGCUAGUCAUAUCAACAGAGGAUUGAGCAUCA
B6: chrX:20248820:20248821:+_ENSMUSG00000001924_ENSMUST00000001989|mus_mus|mus_mus_mus_hu_True|68_98 (ssRNA)
RNA: GGGAGUUCUACAGUCCGACGAUCGGCGAAGUCCGUCAUCACAAAGUCAGGUUCUGCCAGUGAGGCCGGCAAGGAUUUAAAGCUAAUCUUCUUAGGUACUUUGACCUGACUGACGAUGCCUCCACGGAUGUAGUCGGAGAAGUUCAACAGAGGAUUGAGCAUCA
B7: chr4:17845017:17845018:+_ENSG00000109805_ENST00000514176|hu_mus|hu_hu_hu_mus_False|38_98 (ssRNA)
RNA: GGGAGUUCUACAGUCCGACGAUCGCUCUCUUAACUUGAUCUUCAUUUAAGGAACUCUGCAAGGUUAAGUUUACUUUUCUGUAGCGCAGCUGUUUUGCUCGUCUUGGGUAAUCUCAUCUUCAUUUCUGAUGGUGGUUCAUGAUCCAACAGAGGAUUGAGCAUCA
B8: chr7:90019206:90019207:+_ENSMUSG00000057706_ENSMUST00000082237|mus_mus|FALSE|FALSE (ssRNA)
RNA: GGGAGUUCUACAGUCCGACGAUCCUUUAAUAAAGCUGCAGGGUCCUGGCUGUACAGAACUCCUGGCCCUUCCAUGAACAUUCAAAAAGGAUCCACUUGUGUUCUAGAACGAGCGCUGUAGGAACCCACCCACAAAGGGAAACACAACAGAGGAUUGAGCAUCA
B9: 222906797_222906917_2443_3pUTR_ENSG00000162819_ENST00000340934|human|control|control (ssRNA)
RNA: GGGAGUUCUACAGUCCGACGAUCAUCUUUAACUAUAAGUGACUUUUUAUUCUCCACCAGAAAAGAUAAAUGACUGAGAAUGUAAGUCUGCGCUCUGAUUAACACAAUGGAGAAACGGAAAAACUAUCUCUGUUAAAAACUGAUCAACAGAGGAUUGAGCAUCA
B10: chr4:2840174:2840175:+_ENSG00000087266_ENST00000503393|hu_hu|FALSE|FALSE (ssRNA)
RNA: GGGAGUUCUACAGUCCGACGAUCGAACUACGAUACAGCCAAACAAUGGAAGUUUUUAGCAAUGAACAUGCACAAACUAUACUACGCACAGCAACAUGAAUAAAUCUCACAGACAUAAUAACGAGCCAAAGAAGCCAGCUGCCACAACAGAGGAUUGAGCAUCA
B11: chr14:76904430:76904431:+_ENSMUSG00000022010_ENSMUST00000022587|mus_mus|mus_mus_mus_hu_True|1_68 (ssRNA)
RNA: GGGAGUUCUACAGUCCGACGAUCUGCAGCCAAAAACACCCUCGUGGAAAAAAAGAGGGAACACCAGCAGCCUGGUUUAAGCUAGAUAAAAUCUUCUGGCUUUCCGCAGCCCAGGGAGAAACAGAAAACGGCAGCCCUCGAGUGCAACAGAGGAUUGAGCAUCA
B12: chr5:71493517:71493518:+_ENSG00000131711_ENST00000296755|hu_hu|FALSE|FALSE (ssRNA)
RNA: GGGAGUUCUACAGUCCGACGAUCUUCUUUUAUUGGUGCAAAGUCUGUGCUUUUCCCUUCCUGUUUGUCUUGGUAAAGACUAGUAGAAGUCAUUUCAGAAACUGGACUUACUUGGUCUGGAGAGCCUUGUUUUCCACUCUUUUCCAACAGAGGAUUGAGCAUCA
B13: chr15:80044675:80044676:+_ENSMUSG00000042428_ENSMUST00000044970|mus_hu|FALSE|FALSE (ssRNA)
RNA: GGGAGUUCUACAGUCCGACGAUCCCUCUUCCAUCCAUACACAAGCAUGUAUUUACAGGGACACAGCAAUACAGACAUGUACAAAUACACACCAAGCAUGCACCCAUGCCCAUAAAUAUACACACACACACGCACAAACAUGAGCAACAGAGGAUUGAGCAUCA
B14: 116090195_116093479_488_CDS_ENSMUSG00000029518_ENSMUST00000031492|mouse|control|control (ssRNA)
RNA: GGGAGUUCUACAGUCCGACGAUCACAGUUCUGGUUGAUUUCAUGAAGCCAUCGCUUGACGUUGACAAAGGACUCGGCACUAGUGACGUCGUAAACCACAAUGACCCCAUGGGUCCCCCGAUAAUACGUAGAGGUGAUGGUGCGCAACAGAGGAUUGAGCAUCA
B15: chr3:176740097:176740098:-_ENSG00000177565_ENST00000430069|hu_mus|hu_hu_hu_mus_True|28_38 (ssRNA)
RNA: GGGAGUUCUACAGUCCGACGAUCUGUUUUGUAUACCACAAAAGGAGGCACUUUCAGUAUCUGCAAAAGGUGUUUAGUCCUAAAACAUACUCACCUAGAGAAUAAUUAAAACAGAAUAUCUGUUACACUCUAAGACCUACUCCACAACAGAGGAUUGAGCAUCA
B16: chr3:10015032:10015033:+_ENSMUSG00000027533_ENSMUST00000029046|mus_mus|mus_mus_mus_hu_True|8_88 (ssRNA)
RNA: GGGAGUUCUACAGUCCGACGAUCGUUUUUACCAUCACAAGUGAUGAUACAGUCUGGCUUGGCCAUUGCGCCCAUUUUUCGCAAAGCUAUUCCCACUCCUAGCUCCUUCAUGUAUUCAUCAAAGCCUUGGCUUUCCACCAGGCGCAACAGAGGAUUGAGCAUCA
B17: 149829854_149829974_897_CDS_ENSG00000168280_ENST00000414838|human|control|control (ssRNA)
RNA: GGGAGUUCUACAGUCCGACGAUCUUUCUCCUCUGUAGAGAUGCCAGCAACAACAGGAGCAAUAUUGUCUAUGAUGGGGGUGUUAUCACAAGGCUCCAGGUUCUUCUGGUCCUUGGCACUGAUCUGUUCAUCCUCAGGCACAGCCAACAGAGGAUUGAGCAUCA
B18: 6220086_6224093_530_CDS_ENSMUSG00000025907_ENSMUST00000027040|mouse|control|control (ssRNA)
RNA: GGGAGUUCUACAGUCCGACGAUCCUGAAUAGCAAUCUUGUAUUUGCUUUGAAUGGCAUGCUUAAGAUCAGCCACAGUUUGCACAGUUAGCUCAGUGUCAAAUGUCAGCGUGGUUCCGGUGUUAACCAGAAACACAUAUAACUUCAACAGAGGAUUGAGCAUCA
B19: chr6:72791194:72791195:-_ENSMUSG00000055239_ENSMUST00000068697|mus_mus|FALSE|FALSE (ssRNA)
RNA: GGGAGUUCUACAGUCCGACGAUCUGAGUUAUGGUGCAGAUGUGUCUGAAAUGACCACAGCUGGAAAACGAACUUCUGAAACUUCUCAACAACCAAUUAAAAAAAGAAAACCCCACCGGCCUUGACCUCUGGUGUACCAGGAGCCAACAGAGGAUUGAGCAUCA
B20: chr6:83430385:83430386:-_ENSMUSG00000014554_ENSMUST00000014698|mus_hu|FALSE|FALSE (ssRNA)
RNA: GGGAGUUCUACAGUCCGACGAUCUUGGGAGACACAACAUUUUUCUAGCUUCAGAAAGUCAGGGAGCCCAGAUCACAGCCUGAACUUCAUGGUAUUGGUUACAGAUUCUUUACAAAGGUGUUUACCUCUCUCAUGAGGUCUUCUCAACAGAGGAUUGAGCAUCA
B21: 72544383_72546128_1578_3pUTR_ENSMUSG00000031858_ENSMUST00000050561|mouse|control|control (ssRNA)
RNA: GGGAGUUCUACAGUCCGACGAUCGCAGGUACCACCAUGUUGUUACUCUCCCUGUGAUUUCCCAACACAUAGAAGAUGUGACCCAGCAGCACAAGGGAGCAGGCUGUGAGGCGGUUCAGGUCCUCUGCAUUUGACAUCUUCAGACAACAGAGGAUUGAGCAUCA
B22: chr1:163117127:163117128:-_ENSG00000143248_ENST00000313961|hu_mus|hu_hu_hu_mus_False|1_48 (ssRNA)
RNA: GGGAGUUCUACAGUCCGACGAUCUGCUACAAAGGAUGUAACUCAACUCACAGGGCAACUUUUGGAAGCCUGACCAGAUGACUACUUGAUUAACUCCUUAUAAAAUUCAGAGCGCACAAAGCGGGGCAGAGAAUCCUUUUCCAUCAACAGAGGAUUGAGCAUCA

biological target: T1, UNK ZnF1-3 (human, UniProt Q9C0B0 31-174); assay: nsRBNS (natural sequence RNA bind-n-seq); RBNS binding buffer (assumed for nsRBNS): 25 mM Tris pH 7.5, 150 mM KCl, 3 mM MgCl2, 0.01% Triton X-100, 500 ug/ml BSA, 20 U/ml SUPERase-In, 4 C; UNK is unkempt and MSI1 is Musashi-1; names of the RNAs are library labels; protein concentration not given here; high values mean tight binding
T1 sequence: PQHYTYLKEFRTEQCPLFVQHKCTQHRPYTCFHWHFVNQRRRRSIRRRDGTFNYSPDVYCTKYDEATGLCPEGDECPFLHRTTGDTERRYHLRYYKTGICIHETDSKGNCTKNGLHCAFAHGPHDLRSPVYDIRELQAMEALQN

| Binder | binding signal [enrichment R] |
| --- | --- |
| B1 | 1.09 |
| B2 | 0.426 |
| B3 | 2.94 |
| B4 | 1.19 |
| B5 | 1.86 |
| B6 | 0.755 |
| B7 | 0.334 |
| B8 | 0.939 |
| B9 | 0.749 |
| B10 | 1.58 |
| B11 | 1.76 |
| B12 | 0.419 |
| B13 | 1.52 |
| B14 | 0.748 |
| B15 | 0.696 |
| B16 | 0.662 |
| B17 | 1.43 |
| B18 | 0.601 |
| B19 | 1.5 |
| B20 | 0.715 |
| B21 | 1.11 |
| B22 | 1.25 |
